Measurements: article PMC10149931
These are yes or no findings as the source states them, for the method shown. Binding seen in cells or lysates may run through a third protein. Some entries that bind do so weakly or less than the wild type. Each block holds one substance with its values, some of them ahead of it.

The chains behind the UniProt entries cited, without tags or fusion partners. Where a name states a change or a piece, a line headed by the entry shows the natural chain unless it says otherwise. Residues count along the entry.
UniProt P42768: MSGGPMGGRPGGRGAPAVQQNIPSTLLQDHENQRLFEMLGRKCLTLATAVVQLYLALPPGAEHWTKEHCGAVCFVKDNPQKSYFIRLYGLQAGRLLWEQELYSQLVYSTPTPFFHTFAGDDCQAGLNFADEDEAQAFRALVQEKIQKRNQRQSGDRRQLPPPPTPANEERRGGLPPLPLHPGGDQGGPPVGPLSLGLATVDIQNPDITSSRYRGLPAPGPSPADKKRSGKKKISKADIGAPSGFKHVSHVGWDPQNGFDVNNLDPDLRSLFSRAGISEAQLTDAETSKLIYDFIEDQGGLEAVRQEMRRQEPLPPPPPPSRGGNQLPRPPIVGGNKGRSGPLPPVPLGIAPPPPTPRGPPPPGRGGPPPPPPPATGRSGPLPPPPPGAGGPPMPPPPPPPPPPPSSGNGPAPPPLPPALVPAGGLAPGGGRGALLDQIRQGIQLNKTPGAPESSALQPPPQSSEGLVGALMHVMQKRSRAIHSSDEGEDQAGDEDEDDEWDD
FLAG-WASp Q297*: residues 1-296 of P42768
FLAG-WASp K232*: residues 1-231 of P42768
UniProt O00401: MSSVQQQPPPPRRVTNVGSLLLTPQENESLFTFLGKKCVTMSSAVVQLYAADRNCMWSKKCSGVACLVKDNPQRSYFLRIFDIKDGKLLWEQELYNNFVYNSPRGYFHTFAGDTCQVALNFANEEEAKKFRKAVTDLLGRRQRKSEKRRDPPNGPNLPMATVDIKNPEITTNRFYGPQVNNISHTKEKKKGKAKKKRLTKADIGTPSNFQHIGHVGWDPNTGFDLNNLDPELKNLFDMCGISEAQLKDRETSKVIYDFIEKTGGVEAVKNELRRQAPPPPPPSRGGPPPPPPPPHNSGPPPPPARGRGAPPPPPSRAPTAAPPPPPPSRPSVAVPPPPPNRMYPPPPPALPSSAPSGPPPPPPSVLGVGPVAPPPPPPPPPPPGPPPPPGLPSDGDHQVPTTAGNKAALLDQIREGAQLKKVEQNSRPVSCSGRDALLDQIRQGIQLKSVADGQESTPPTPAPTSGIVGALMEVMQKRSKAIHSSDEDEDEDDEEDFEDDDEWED
UniProt P23743: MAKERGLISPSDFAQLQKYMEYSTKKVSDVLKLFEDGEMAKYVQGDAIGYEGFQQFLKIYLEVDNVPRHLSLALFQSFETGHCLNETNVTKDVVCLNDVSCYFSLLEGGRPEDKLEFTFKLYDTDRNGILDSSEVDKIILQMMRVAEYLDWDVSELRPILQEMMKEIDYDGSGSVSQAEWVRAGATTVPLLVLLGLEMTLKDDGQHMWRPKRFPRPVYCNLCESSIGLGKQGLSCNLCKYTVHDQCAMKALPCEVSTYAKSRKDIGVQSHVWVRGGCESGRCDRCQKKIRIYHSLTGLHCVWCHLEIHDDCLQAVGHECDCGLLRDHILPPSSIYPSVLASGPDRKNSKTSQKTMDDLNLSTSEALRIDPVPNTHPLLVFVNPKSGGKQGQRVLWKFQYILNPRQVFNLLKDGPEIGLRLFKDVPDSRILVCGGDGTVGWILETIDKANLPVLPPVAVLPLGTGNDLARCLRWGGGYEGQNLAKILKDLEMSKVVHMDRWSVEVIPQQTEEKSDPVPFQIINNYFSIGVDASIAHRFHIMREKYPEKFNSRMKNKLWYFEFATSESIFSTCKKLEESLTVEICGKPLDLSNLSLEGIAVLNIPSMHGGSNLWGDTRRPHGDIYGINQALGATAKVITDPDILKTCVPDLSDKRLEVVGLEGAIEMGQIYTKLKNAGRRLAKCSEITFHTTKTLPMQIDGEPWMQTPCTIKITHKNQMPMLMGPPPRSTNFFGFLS
GST-DGKα E86*: residues 1-85 of P23743
UniProt P49619: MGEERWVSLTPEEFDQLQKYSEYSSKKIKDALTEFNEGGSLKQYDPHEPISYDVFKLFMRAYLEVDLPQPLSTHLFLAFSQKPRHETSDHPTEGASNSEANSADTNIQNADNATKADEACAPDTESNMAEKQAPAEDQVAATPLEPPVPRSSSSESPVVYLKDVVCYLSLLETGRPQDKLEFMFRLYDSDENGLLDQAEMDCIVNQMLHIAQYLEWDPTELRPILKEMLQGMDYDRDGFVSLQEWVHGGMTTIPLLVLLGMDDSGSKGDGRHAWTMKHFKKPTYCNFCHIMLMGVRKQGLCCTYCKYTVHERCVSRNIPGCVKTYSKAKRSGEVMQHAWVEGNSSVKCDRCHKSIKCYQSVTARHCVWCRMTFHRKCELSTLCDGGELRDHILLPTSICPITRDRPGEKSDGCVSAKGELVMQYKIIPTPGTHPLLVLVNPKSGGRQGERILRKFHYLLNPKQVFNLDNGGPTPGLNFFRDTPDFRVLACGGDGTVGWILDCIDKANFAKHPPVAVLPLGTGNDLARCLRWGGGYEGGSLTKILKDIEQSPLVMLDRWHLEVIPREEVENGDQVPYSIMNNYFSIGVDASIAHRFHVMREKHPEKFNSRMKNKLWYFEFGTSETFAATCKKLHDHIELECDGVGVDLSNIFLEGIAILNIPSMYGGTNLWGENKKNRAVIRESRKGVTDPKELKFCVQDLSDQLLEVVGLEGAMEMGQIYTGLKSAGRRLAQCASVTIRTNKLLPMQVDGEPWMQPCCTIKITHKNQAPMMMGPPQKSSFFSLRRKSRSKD

Legend:
FLAG-WASp Q297* = FLAG-WASp Q297* (UniProt P42768); assay: co-IP; 293T cells co-transfected, lysed after 48 hours in lysis buffer (25 mM HEPES, 150 mM NaCl, 1% NP40, pH 8.0); immunoprecipitation with anti-FLAG or anti-myc agarose and Protein G Sepharose at 4°C, six washes; western blotting
myc-FLAG-N-WASp = myc-FLAG-N-WASp (UniProt O00401); assay: as above
FLAG-WASp K232* = FLAG-WASp K232* (UniProt P42768); assay: as above
FLAG-WASp = FLAG-WASp (UniProt P42768); assay: as above
myc-DGKα = myc-DGKα (UniProt P23743); assay: as above
GST-DGKα = GST-DGKα (UniProt P23743); assay: pull-down; 293T cells co-transfected with GST-DGKα constructs and FLAG-WASp; glutathione beads pulled down the GST fusion from lysate (the legend says anti-GST antibody); western blotting
GST-DGKα E86* = GST-DGKα E86* (UniProt P23743); assay: as above
[1] = molecular target: WASp (endogenous, human PBLs) (human (endogenous in PBLs)) (UniProt P42768); assay: proximity ligation; endogenous DGKα and WASp in isolated human PBLs on poly-L-lysine glasses, unstimulated or stimulated 15 minutes with anti-CD3 (UCHT1 10 μg/ml) and anti-CD28 (CD28.2 5 μg/ml), fixed and permeabilized; Duolink PLA, spots per cell counted

binding (FLAG-WASp Q297*): binds | binding (myc-FLAG-N-WASp): no binding | binding (FLAG-WASp K232*): binds | binding (FLAG-WASp): binds
Substance: myc-DGKα (from UniProt P23743 1-735) (enzyme)

binding (FLAG-WASp): binds
Substance: myc-DGKα-L360* (from UniProt P23743 1-359) (domain or fragment)

binding [1]: binds
Substance: DGKα (endogenous, human PBLs) (from UniProt P23743 1-735) (enzyme)

The next lines start with the substance.

Substance: HA-DGKγ (from UniProt P49619 1-791) (enzyme)
binding (FLAG-WASp): no binding

Substance: FLAG-WASp (from UniProt P42768 1-502)
binding (myc-DGKα): binds | binding (GST-DGKα): binds | binding (GST-DGKα E86*): binds
